The source gives no read counts; variants with many changes may rest on few reads.
B1: LINE1-mini (parent)
chain: GGCAGAGCUCAACACAGCGUGGCAAAGUGGCUGUGGCUAGACUGCC

Variants of: B1
Test: self-cleavage, relative activity (ratio to wild type); higher = more cleavage; in vitro, sequencing; the parent is a self-cleaving ribozyme

Row | Variant | self-cleavage
1 | GGCAGAGCUCAAGACAGCGUGGCAAAUUGGCUGUGGCAAGACUGCC [C13G G27U U38A] | 0.25
2 | GGCAGAGCUCAAGACACCCUGGCAAAGUGUCUAUGGCUAGACUGCA [C13G G17C G19C G30U G33A C46A] | 0.01
3 | GGCAGAGCUCAAUACUGCGUGGCAAAGUGGAUGUGGCUAGACUGCC [C13U A16U C31A] | 0.11
4 | GGCAGAGCUCAAGACAGCGUGUCAAAGUGGGUGUAGCUCGACUGCC [C13G G22U C31G G35A A39C] | 0.04
5 | GGCAGAGCUCAAUACAGCGUGGCAAUGUGGCUGUGGCUAGGCUGCC [C13U A26U A41G] | 0.1
6 | GGCAGAGCUCAAGACAGCGUGGCAAAGUGGCUUUGGCUAGUCUGCC [C13G G33U A41U] | 0.41
7 | GGCAGAGCUCAAGACAGCGCGGCAAAGUUGCUGUGGCUAUACUGCG [C13G U20C G29U G40U C46G] | 0.31
8 | GGCAGAGCUCAAUACAGCGUGGCUAAGUGGCUGCGGCUAGACUGCC [C13U A24U U34C] | 0.07
9 | GGCAGAGCUCAAGACAGCGUGGCAAAGUUGCUGUGUCUAGACUGGC [C13G G29U G36U C45G] | 0.02
10 | GGCAGAGCUCAAUCCAGCGUGGCAACGUGGCUGGGGCUACACUGCC [C13U A14C A26C U34G G40C] | 0.01
11 | GGCAGAGCUCAAGACAGCGUGGCAAAGUAGCUGUGGUUUGACUGCC [C13G G29A C37U A39U] | 0.02
12 | GGCAGAGCUCAAUACAGCGUGGCGAAGUUGCUGUGGCUAGACUGCC [C13U A24G G29U] | 0.21
13 | GGCAGAGCUCAAUAAGGCGUGGCAAAGUGGCUGUGGCAAGACUGCC [C13U C15A A16G U38A] | 0.03
14 | GGCAGAGCUCAAUACAGCGUGGCAAAGUGGCUGUGGCUAGCGUGCC [C13U A41C C42G] | 0.14
15 | GGCAGAGCUCAAUACAGCGUGGCAAAGUGGCUGUGGCUCGACUGAC [C13U A39C C45A] | 0.04
16 | GGCAGAGCUCAAUUCAGCGUGGCAAAGUGGCUGUGGAUAGACUGCC [C13U A14U C37A] | 0.18
17 | GGCAGAGCUCAAGACAGCGUGCCAAAGUGGCUUCGGCUAGCCUGCC [C13G G22C G33U U34C A41C] | 0
18 | GGCAGAGCUCAAUACAGUGGGGUAAAGUGGCUGUGGCUAGACUGCC [C13U C18U U20G C23U] | 0.22
19 | GGCAGAGCUCAAUACUGAGUGGCAAAGUGGCUGUGGCUAGACUGCC [C13U A16U C18A] | 0.12

Row | Variant | self-cleavage
20 | GGCAGAGCUCAAGACAGCGUGGCAAAUUGGCAGUGGCUAGACUGCC [C13G G27U U32A] | 0.21
21 | GGCAGAGCUCAAUACAGCGUGGCAAUGUGGCUGCGGCUAGACUGCC [C13U A26U U34C] | 0.06
22 | GGCAGAGCUCAAGACAGCGUGGCAAAGUGACUGUGGCUCGACUGCC [C13G G30A A39C] | 0.04
23 | GGCAGAGCUCAAGACAGCGUGGCAAAGUGACUGUGGCUAGAUUGCC [C13G G30A C42U] | 0
24 | GGCAGAGCUCAAUACAGCGUGGCACAGUGGCUGUGGCUACACUGCC [C13U A25C G40C] | 0.01
25 | GGCAGAGCUCAAGACAGCGUGGCAAAGUGGCUGCGGCUAGACUGCU [C13G U34C C46U] | 0.02
26 | GGCAGAGCUCAAUACAGCGUGGCAAUGUGGCUGUGGCUAGAGUGCC [C13U A26U C42G] | 0.11
27 | GGCAGAGCUCAAUACCGCGUGGCAAAGUGGCUAUGGAUAGACUGCC [C13U A16C G33A C37A] | 0.11
28 | GGCAGAGCUCAAUACAGAGUGGCAAAGAGGCUGUGGUUAGACUGCC [C13U C18A U28A C37U] | 0.01
29 | GGCAGAGCUCAAUUCAGCGUGGCAAAACGGCUGUGGCUAGACUGCA [C13U A14U G27A U28C C46A] | 0.01
30 | GGCAGAGCUCAAUACAGCGUGGAAAAGUGGCUUUGGCUAGACUUCC [C13U C23A G33U G44U] | 0.61
31 | GGCAGAGCUCAAUACCGUGUGGCAAAGUGGCUGUGGCUAGUCUGCC [C13U A16C C18U A41U] | 0
32 | GGCAGAGCUCAAUCCAUCGUGGCAAAUUGCCUGUGGCUAGACUGCC [C13U A14C G17U G27U G30C] | 0.01
33 | GGCAGAGCUCAAUACAGCGUGGCCAAGUGGUUGUGGCUAGACUGCC [C13U A24C C31U] | 0.03
34 | GGCAGAGCUCAAUAGAGAUUGGCAAAGUGGCAGUGGCUAGACUGCC [C13U C15G C18A G19U U32A] | 0.04
35 | GGCAGAGCUCAAGACAGCGUGGCAAAGGGGCUGCGGCUAGGCUGCC [C13G U28G U34C A41G] | 0.01
36 | GGCAGAGCUCAAUAAAGCGUGUCAAAGUGGAUGUGGCUAGACUGCC [C13U C15A G22U C31A] | 0.16
37 | GGCAGAGCUCAAGACAGCGGGGCAUAGUGACUGUGGCUAGACUGCC [C13G U20G A25U G30A] | 0.04
38 | GGCAGAGCUCAAGACAGCGGGGCAAAUUGCCUGUGGCUACAGUGCG [C13G U20G G27U G30C G40C C42G C46G] | 0.01

Row | Variant | self-cleavage
39 | GGCAGAGCUCAAGACAGCGUGGCAAAGUGGCUGUGGCUAGACGGUC [C13G U43G C45U] | 0.01
40 | GGCAGAGCUCAAUCCGGCGUGGCAAAGUGGCUGUGGCUAGACUGCC [C13U A14C A16G] | 0.03
41 | GGCAGAGCUCAAUCCAGCGUGGCAAAGUGGUUGUGGCUGGACUGCC [C13U A14C C31U A39G] | 0.05
42 | GGCAGAGCUCAAGACAGCUUGGCAAAGUGGCUCUGGCUAGACUGCC [C13G G19U G33C] | 0.03
43 | GGCAGAGCUCAAGACAGCGUUGCAAAGUGGCUCUGGCUAGACUGCC [C13G G21U G33C] | 0.07
44 | GGCAGAGCUCAAUCCAGCGUGGCUACAUGGCUGUGGCUAGACUGCC [C13U A14C A24U A26C G27A] | 0.08
45 | GGCAGAGCUCAAUAAAGCGUGGCAAAGUGGCUGUGGCUUGACCGCU [C13U C15A A39U U43C C46U] | 0.06
46 | GGCAGAGCUCAAGACAGCGUGGCAAAAUGGCUUUGGCUAGACUGCC [C13G G27A G33U] | 0.42
47 | GGCAGAGCUCAAGACAUCGUGGCAAAGUGACUGUGGCUAGACUGCC [C13G G17U G30A] | 0.03
48 | GGCAGAGCUCAAGACAGCGUGGCAAAGAGGCUGUGGCUAGACUGCA [C13G U28A C46A] | 0.12
49 | GGCAGAGCUCAAUAGAUCGUGGCAAAGUGGCUGUGGCUAGACUGCC [C13U C15G G17U] | 0.02
50 | GGCAGAGCUCAAUACAGCGUGGCAUACUGGCUAUGGCUAGACUGCC [C13U A25U G27C G33A] | 0.09
51 | GGCAGAGCUCAAUAGAGCGGGGCAAAGUGGCUGGGGCUAGACUGCC [C13U C15G U20G U34G] | 0.01
52 | GGCAGAGCUCAAGACAGCGUGGCAAAAUGGCUGUGGCCAGAUUGCC [C13G G27A U38C C42U] | 0.04
53 | GGCAGAGCUCAAGACACAGUGGCAAAGUCGCUGUGGAUAGACUGCC [C13G G17C C18A G29C C37A] | 0.1
54 | GGCAGAGCUCAAGACAGCGUAGCAAACUGGCUGUGGCUAGACUGCC [C13G G21A G27C] | 0.2
55 | GGCAGAGCUCAAGACAGCGUGCCAAUGUGGCUGUAGCUAGACUGCC [C13G G22C A26U G35A] | 0.07
56 | GGCAGAGCUCAAUACAGCGUGGGAAAGUCGCUGUGGCUAGACUACC [C13U C23G G29C G44A] | 0.07
